Experimental data taken from publication PMC5892938.
Some of the results follow. The source does not settle which construct or isoform was used.

What follows are sequences tested against GST-SBP-ILF3 (Homo sapiens) (UniProt Q12906) (assay: targeted RNA Bind-n-Seq). Settings: RBNS binding buffer: 25 mM Tris pH 7.5, 150 mM KCl, 3 mM MgCl2, 0.1% Tween, 0.5 mg/mL BSA, 1 mM DTT; 27 nM protein, 750 pM RNA pool; temperature not stated; high values mean tight binding; sequences stand for … in GGGUAAAAGCGAGGUGAA…CGGGACAAGUAUUAUGGG.
“GUGUGUGGUGUUGGCCUCUAACACCACAUA [gtspaired]” showed a binding signal (log2 fold change) of -0.479. “UUUUUUUUUUGAGAUGGACGCCAUCUCCGG [tttttgagapaired]” gave a binding signal (log2 fold change) of 0.561. Work on “UUUUUUUUUUGAGAUCGUAGCGAUCUCCGG [tttttgagapaired]” yielded a binding signal (log2 fold change) of 0.244. “UUUUUUUUUUGAGACUGCAACAGUUUCCAG [tttttgagapaired]” showed a binding signal (log2 fold change) of 0.483. For “UUUUUUUUUUGAGAGGGGGGCCCUCUCCUG [tttttgagapaired]”, the binding signal (log2 fold change) was 0.976. “UUUUUUUUUUGAGACUGUAACAGUCUCCGG [tttttgagapaired]” showed a binding signal (log2 fold change) of 0.429. In the case of “UUUUUUUUUUGAGACGGACUCCGUCUCCAG [tttttgagapaired]”, the binding signal (log2 fold change) is reported as 0.55. “GGUGUGUGUGUUGGAUCCUAACACACGCGC [gtspaired]” gave a binding signal (log2 fold change) of -0.146. “GGUGUUGGUGUUGGAGCCUAACACCAGCGC [gtspaired]” gave a binding signal (log2 fold change) of -0.448. “UUUUUUUUUUGAGACUGAAACAGUCUCCGG [tttttgagapaired]” gave a binding signal (log2 fold change) of 0.155. In the case of “GUGUGGUGUGUUGGUUCCUAACACAUCACA [gtspaired]”, the binding signal (log2 fold change) is reported as -0.318. For “UUUUUUUUUUGAGAUGGACACCAUCUCCUA [tttttgagapaired]”, the binding signal (log2 fold change) was 0.161. Work on “UUUUUUUUUUGAGAGUGCGGCAUUCUCCAG [tttttgagapaired]” yielded a binding signal (log2 fold change) of 0.449. Sequence “UUUUUUUUUUGAGAACGGGGCGUUCUCCGG [tttttgagapaired]” has a binding signal (log2 fold change) of 0.39. “UUUUUUUUUUGAGAUGGGCUCCAUCUCCGG [tttttgagapaired]” was tested, and the binding signal (log2 fold change) was 0.5. Sequence “GUUGGUGGUGUUGGUACCUAACACCGCCGA [gtspaired]” has a binding signal (log2 fold change) of -0.691. “GUGGUUGGUGUUGGCGCCUAACACCGACCG [gtspaired]” was tested, and the binding signal (log2 fold change) was -0.424. “UUUUUUUUUUGAGAUGGCCGCCAUCUCCAG [tttttgagapaired]” gave a binding signal (log2 fold change) of 0.792. In the case of “UUCCUUCUUCCUCCUUGGGAGGGAGAGGGA [ctspaired]”, the binding signal (log2 fold change) is reported as -0.259. Sequence “UUUUUUUUUUGAGACUGAAUCAGUCUCCUA [tttttgagapaired]” has a binding signal (log2 fold change) of 0.00366. “GUUGUGUGUGUUGGACCCUAACACACGCGA [gtspaired]” was tested, and the binding signal (log2 fold change) was -0.2. “UUUUUUUUUUGAGACUGGGACAGUCUUCUG [tttttgagapaired]” gave a binding signal (log2 fold change) of 0.781. “UUUUUUUUUUGAGACUGAGCCAGUCUCCAG [tttttgagapaired]” gave a binding signal (log2 fold change) of 0.383. “UUUUUUUUUUGAGACCGAUUCGGUUUCCGG [tttttgagapaired]” showed a binding signal (log2 fold change) of 0.34. “GGUGUGUGUGUUGGAUUCUAACACACGCGC [gtspaired]” showed a binding signal (log2 fold change) of -0.476. Sequence “UUUUUUUUUUGAGACGGGUACCGUCUCCGG [tttttgagapaired]” has a binding signal (log2 fold change) of 0.327. “UUUUUUUUUUGAGAUGGGGUCCAUCUCCUA [tttttgagapaired]” was tested, and the binding signal (log2 fold change) was 0.275. Sequence “UUUUUUUUUUGAGAGCGGAGCGCUCUUCUG [tttttgagapaired]” has a binding signal (log2 fold change) of 0.229. “GGUGUGUGUGUUGGAGCCUAACACAUACAC [gtspaired]” was tested, and the binding signal (log2 fold change) was -0.161. With “GUGUGGUGUGUUGGAUCCUAACACAUCACG [gtspaired]” the binding signal (log2 fold change) was -0.667. “UUUUUUUUUUGAGAGCGUCACGCUCUUCUA [tttttgagapaired]” showed a binding signal (log2 fold change) of 0.275. “GUGUGUUGUGUUGGCUCCUAACACAGCACG [gtspaired]” showed a binding signal (log2 fold change) of -0.623. Sequence “UUUUUUUUUUGAGACGGACCCCGUCUCCGG [tttttgagapaired]” has a binding signal (log2 fold change) of 0.873. With “UUUUUUUUUUGAGAACGUGACGUUCUCCGG [tttttgagapaired]” the binding signal (log2 fold change) was 0.206. “UUUUUUUUUUGAGAGGGCUUCCCUCUCCAG [tttttgagapaired]” showed a binding signal (log2 fold change) of 0.404. In the case of “UUUUUUUUUUGAGACCGAACCGGUCUCCUA [tttttgagapaired]”, the binding signal (log2 fold change) is reported as -0.0587. In the case of “GUGUGUGGUGUUGGAGUCUAACACCGCGCG [gtspaired]”, the binding signal (log2 fold change) is reported as -0.74. Work on “UUUUUUUUUUGAGAGUGAGUCACUCUCCUA [tttttgagapaired]” yielded a binding signal (log2 fold change) of -0.00193. For “UUUUUUUUUUGAGAUGGGUCCCAUCUCCAG [tttttgagapaired]”, the binding signal (log2 fold change) was 0.659. “GUGUGGUGUGUUGGCAUCUAACACACCGCG [gtspaired]” was tested, and the binding signal (log2 fold change) was -0.672. Work on “UUUUUUUUUUGAGAUGGGCGCCAUCUCCAG [tttttgagapaired]” yielded a binding signal (log2 fold change) of 0.616. “UUUUUUUUUUGAGACUGUUUCAGUCUUCUG [tttttgagapaired]” gave a binding signal (log2 fold change) of 0.0515. “UUUUUUUUUUGAGAUGGAUCCCAUCUUCUA [tttttgagapaired]” showed a binding signal (log2 fold change) of 0.0611. In the case of “UUUUUUUUUUGAGAGCGUAGCGUUCUCCGG [tttttgagapaired]”, the binding signal (log2 fold change) is reported as 0.333. “UUUUUUUUUUGAGACCGGAACGGUUUCCUG [tttttgagapaired]” was tested, and the binding signal (log2 fold change) was 0.595. In the case of “UUUUUUUUUUGAGAGUGAUACACUCUCCAG [tttttgagapaired]”, the binding signal (log2 fold change) is reported as 0.0737. “GGUUGUGGUGUUGGCCCCUAACACCGCGAC [gtspaired]” showed a binding signal (log2 fold change) of -0.254. In the case of “GUGUGGUGUGUUGGCUUCUAACACAUCACG [gtspaired]”, the binding signal (log2 fold change) is reported as -0.382. “UUUUUUUUUUGAGACGGAUGCCGUCUCCAG [tttttgagapaired]” gave a binding signal (log2 fold change) of 0.492. Work on “UUUUUUUUUUGAGACUGUUUCAGUUUCCGG [tttttgagapaired]” yielded a binding signal (log2 fold change) of 0.289. For “GGUUGUGGUGUUGGACUCUAACACCGCAGC [gtspaired]”, the binding signal (log2 fold change) was -0.795. Work on “GUGUGGUGUGUUGGUACCUAACACACUACG [gtspaired]” yielded a binding signal (log2 fold change) of -0.886. In the case of “UUUUUUUUUUGAGACCGAUUCGGUCUUCUA [tttttgagapaired]”, the binding signal (log2 fold change) is reported as -0.114. Work on “UUUUUUUUUUGAGAGGGAUGCCCUUUCCGG [tttttgagapaired]” yielded a binding signal (log2 fold change) of 0.319. In the case of “GUGUGUUGUGUUGGUCUCUAACACAACACG [gtspaired]”, the binding signal (log2 fold change) is reported as -0.295. “UUUUUUUUUUGAGAUCGGUGCGAUCUUCUG [tttttgagapaired]” showed a binding signal (log2 fold change) of 0.437. “UUUUUUUUUUGAGAACGUACCGUUCUCCUA [tttttgagapaired]” gave a binding signal (log2 fold change) of 0.202. In the case of “UUUUUUUUUUGAGAUCGUAGCGAUCUCCUA [tttttgagapaired]”, the binding signal (log2 fold change) is reported as 0.131. For “UUUUUUUUUUGAGAGGGUAGCCCUCUCCAG [tttttgagapaired]”, the binding signal (log2 fold change) was 0.791. “UUUUUUUUUUGAGACGGUCUCCGUCUCCGG [tttttgagapaired]” gave a binding signal (log2 fold change) of 0.721. “UUUUUUUUUUGAGACUGAACCAGUCUCCGG [tttttgagapaired]” gave a binding signal (log2 fold change) of 0.0471. With “GGUGUGUGUGUUGGCCCCUAACACAUACGC [gtspaired]” the binding signal (log2 fold change) was 0.215. With “GUUGUGUGUGUUGGCUCCUAACACACGCAG [gtspaired]” the binding signal (log2 fold change) was -0.453. In the case of “UUUUUUUUUUGAGAGGGGUGCCCUCUUCUA [tttttgagapaired]”, the binding signal (log2 fold change) is reported as 0.667. Work on “UUUUUUUUUUGAGACCGAAUCGGUUUCCUA [tttttgagapaired]” yielded a binding signal (log2 fold change) of 0.512.
